57 compounds from PubChem BioAssay AID1159614 (National Center for Advancing Translational Sciences (NCATS), 2016) can be followed below.

The whole screen tested about 45,000 compounds, of which about 65 (0.1%) were called active. Calls follow the shape of the dose curve; as a rule, active = well fitted activation curve with a large enough effect; inconclusive = small, poorly fitted or top-dose-only effect; inactive = no such curve, though single readings can be large or run the other way. Some of the results follow.

Chain of UniProt P54803 (P54803 whole entry, looked up): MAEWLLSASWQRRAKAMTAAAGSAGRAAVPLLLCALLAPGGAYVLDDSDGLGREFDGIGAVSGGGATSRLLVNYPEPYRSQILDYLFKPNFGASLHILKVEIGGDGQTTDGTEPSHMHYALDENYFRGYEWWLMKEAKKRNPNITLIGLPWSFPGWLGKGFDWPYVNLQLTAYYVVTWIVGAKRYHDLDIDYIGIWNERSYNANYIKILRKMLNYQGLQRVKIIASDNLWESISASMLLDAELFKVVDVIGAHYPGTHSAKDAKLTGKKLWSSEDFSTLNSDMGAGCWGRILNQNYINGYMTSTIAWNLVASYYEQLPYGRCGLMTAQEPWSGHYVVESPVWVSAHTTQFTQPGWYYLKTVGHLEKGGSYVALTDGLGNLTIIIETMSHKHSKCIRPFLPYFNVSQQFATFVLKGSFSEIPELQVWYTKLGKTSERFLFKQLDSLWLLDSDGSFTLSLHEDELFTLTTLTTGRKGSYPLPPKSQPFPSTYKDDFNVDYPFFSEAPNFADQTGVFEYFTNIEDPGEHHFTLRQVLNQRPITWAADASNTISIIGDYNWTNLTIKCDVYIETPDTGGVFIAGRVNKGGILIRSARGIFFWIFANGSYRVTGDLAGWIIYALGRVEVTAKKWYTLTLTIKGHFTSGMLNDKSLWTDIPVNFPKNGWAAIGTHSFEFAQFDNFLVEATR

The assay has as its target Galactocerebrosidase (Homo sapiens) (UniProt P54803). Description: A Novel Cell-Based Assay to Identify Small Molecules for B -Galactocerebrosidase. Also: 0% is about no effect; nearly all actives have a fitted effect of over 65% in size. The conditions noted are these: 145M-Twi-hGALC-G270D cells (Twitcher mouse brain line with human GALC G270D), HMU-beta-Gal fluorescence, 48 h; activation: at the top concentration. The gist of the method:
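Brain-derived Twitcher mouse 145M-Twi cells stably expressing human GALC-G270D or wild-type GALC, treated live, then residual GALC activity read by fluorescence of HMU-b-Gal substrate (0.1 mM final) in citrate-phosphate buffer pH 5.2 with sodium taurocholate. Signal increase indicates enhancement.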
For `Cc1cccc(-n2c(/C=C/c3c(C)[nH]c4ccccc34)nc3ccccc3c2=O)c1`, the “activation” value is inactive: -3.07%. On to `Nc1c(C(=O)Nc2ccc(Br)cc2F)sc2nc3c(cc12)N1CCC3CC1`, for which the “activation” value is inactive: -1.55%.

In the case of `O=C(Nc1ccc(Cl)cc1C(=O)c1ccccc1)c1ccccc1Br`, the “activation” value was inactive: -1.13%. In the case of `CN1CCc2cc(Cl)c(O)cc2[C@H]2c3ccccc3CC[C@@H]21`, the “activation” value was inactive: -14.7%. On to `COc1cc(C(c2c(O)c3ccccc3oc2=O)c2c(C)n(C)n(-c3ccccc3)c2=O)ccc1OCC(=O)O` (configuration not stated), for which the “activation” value was inactive: -14.7%. With `Cc1c(Cl)cccc1NC(=O)CN1C(=O)C(C)N=C(c2ccccc2)c2ccccc21` (configuration not stated), the “activation” value was inactive: -17.2%. Take `CCOC(=O)N1CCN(c2ncc3c(n2)CC(c2ccccc2O)CC3=O)CC1` (configuration not stated): the “activation” value is inactive: -36.4%. The result for `Cc1ccc(-c2nc3ccc(C)cn3c2CC(=O)N(C)C)cc1` reads inactive: -15.4%.

In the case of `O=C(Nc1ccc2c(c1)OCO2)c1cccn(Cc2cccc(F)c2)c1=O`, the “activation” value was inactive: -8.07%. Turning to `Cn1cc(/C=C/c2nc3ccccc3c(=O)n2-c2ccccc2)c2ccccc21`, the “activation” value was inactive: 4.88%. The result for `Nc1ccc(N=Nc2ccccc2)cc1` reads inactive: -7.06% [at 114 µM]; that for `Nc1nc(N)nc(NC2CC2)n1`, inactive: 1.79%. The result for `COc1cc(C(c2c(O)c3ccccc3oc2=O)c2c(C)n(C)n(-c3ccccc3)c2=O)ccc1O` (configuration not stated) reads inactive: -10.9%; that for `C[C@H](N)[C@H](O)c1ccc(O)c(O)c1`, inactive: 19.2%. The result for `C[C@]12CCC(=O)C=C1CC[C@@H]1[C@H]3CC[C@](C)(O)[C@@]3(C)CC[C@@H]12` reads inactive: 1.2% [at 114 µM]. Regarding `CN1CCN(c2oc(-c3ccc(COc4ccccc4)o3)nc2C#N)CC1`, the “activation” value is inactive: -16.6%. Turning to `CC(C)N(CCC(C(N)=O)(c1ccccc1)c1ccccn1)C(C)C` (configuration not stated), the “activation” value was inactive: -12.6%. For `CCCCOC(=O)CCCCCCCCC(=O)OCCCC`, the “activation” value was inactive: -35.1%. On to `O=c1c2ccccc2nc(/C=C/c2ccccc2)n1-c1ccccc1F`, for which the “activation” value was inactive: -12.8%. With `Cc1nnc(NC(=O)c2cccn(Cc3cccc(Cl)c3)c2=O)s1`, the “activation” value is inactive: -3.46%.

In the case of `N[C@@H](Cc1ccc(N(CCCl)CCCl)cc1)C(=O)O`, the “activation” value is inactive: -15.7%. For the compound `CC(C)=CCOc1c2occc2cc2ccc(=O)oc12`, the “activation” value was inactive: -11.6%. Consider `C=CCN1C[C@H](C)N([C@H](c2ccc(C(=O)N(CC)CC)cc2)c2cccc(OC)c2)C[C@H]1C`, for which the “activation” value is inactive: -10.5%. With `CC(=O)[C@@]1(O)CC[C@H]2[C@@H]3C[C@H](C)C4=CC(=O)CC[C@]4(C)[C@H]3CC[C@@]21C`, the “activation” value is inactive: -16.3%. In the case of `C[C@]12CC[C@H]3[C@@H](CCC4=CC(=O)CC[C@@H]43)[C@@H]1CC[C@@H]2O`, the “activation” value is inactive: -7.57%. For the compound `COc1cc2[nH]c(=O)n(Cc3ccc(C(=O)N4CCN(c5ccc(Cl)cc5)CC4)cc3)c(=O)c2cc1OC`, the “activation” value is inactive: -37.7%.

On to `C[C@]12C=CC(=O)C=C1CC[C@@H]1[C@@H]2CC[C@@]2(C)[C@H]1CC[C@]2(C)O`, for which the “activation” value was inactive: -14.2%.

Turning to `CCCC12CN3CC(CCC)(CN(C1)C3c1ccccn1)C2=O` (configuration not stated), the “activation” value is inactive: -8.76%.

Regarding `COc1cccc(/C=C/c2nc3ccccc3c(=O)n2-c2ccc(Cl)cc2)c1OC`, the “activation” value was inactive: -9.57%. Turning to `Cc1ccc(-n2c(/C=C/c3cccs3)nc3ccccc3c2=O)cc1C`, the “activation” value was inactive: -4.77%.

As to `COCCOCCO`, the “activation” value is inactive: -14.8% [at 114 µM]. For the compound `COc1ccc(C)cc1NC(=O)c1cccn(Cc2cccc([N+](=O)[O-])c2)c1=O`, the “activation” value was inactive: -8.02%.

`CC(C)(N)Cc1ccc(Cl)cc1`: the “activation” value is inactive: -6.4%. Turning to `COc1ccc(CN2CCNCC2)c(OC)c1OC`, the “activation” value was inactive: -5.11%. In the case of `CSc1ccc(CN2CCN(C(=O)COc3ccc(C)cc3)CC2)cc1`, the “activation” value was inactive: -10.6%. Take `COc1ccc(CCC(C)=O)cc1`: the “activation” value is inactive: -13.9%. Turning to `CCOc1ccc2nc(NC(=O)c3cccn(Cc4ccccc4)c3=O)sc2c1`, the “activation” value was inactive: -2.6%.

Regarding `C=C(C)[C@H]1CN[C@H](C(=O)O)[C@H]1CC(=O)O`, the “activation” value was inactive: -10.5%.

For `COc1ccc(OC)c(NC(=O)Cn2cc(C(=O)c3ccccc3)c3ccccc32)c1`, the “activation” value is inactive: -9.49%. As for `O=C(Nc1ccc(Cl)cc1C(=O)c1ccccc1)c1cc(Cl)cc(Cl)c1`, the “activation” value is inactive: -1.31%. The result for `O=C1OC(CCN2CCCCC2)OC1(c1ccccc1)c1ccccc1` (configuration not stated) reads inactive: -7.81%; that for `Cc1cc(O)ccc1Cl`, inactive: -15.5%; that for `CCOc1ccc2nc(NC(=O)c3cccn(Cc4ccc(Cl)cc4)c3=O)sc2c1`, inactive: 5.98%. As to `COc1ccc(-c2nc(CN3C(=O)CN=C(c4ccccc4)c4cc(Cl)ccc43)c(C)o2)cc1`, the “activation” value is inactive: 18%.

In the case of `Nc1ccccc1C(=O)O`, the “activation” value is inactive: -11%. The result for `O=C(Nc1ccc2c(c1)OCCO2)c1cccn(Cc2cccc(F)c2)c1=O` reads inactive: -18.2%; that for `CCCC(C)C1(CC)C(=O)N=C(S)NC1=O` (configuration not stated), inactive: -15.7%; that for `CCc1ccccc1NC(=O)c1cccn(Cc2ccccc2F)c1=O`, inactive: -6.33%. With `COc1ccc(NC(C)=O)cc1NC(=O)c1cccn(Cc2ccccc2)c1=O`, the “activation” value was inactive: -9.31%. Consider `C[N+]1(CCC(C(N)=O)(c2ccccc2)c2ccccc2)CCCCC1`, for which the “activation” value is inactive: -10.7%.

As for `Cc1nnc(NC(=O)c2cccn(Cc3cccc([N+](=O)[O-])c3)c2=O)s1`, the “activation” value was inactive: -8.43%.

Take `CC[C@H]1C[C@H]2[C@@H]3CCC4=CC(=O)CC[C@@H]4[C@H]3CC[C@]2(C)[C@H]1O`: the “activation” value is inactive: -9.23%. With `N#Cc1cccc(NC(=O)CSc2nc3c(cc2C#N)N2CCC3CC2)c1`, the “activation” value is inactive: -2.27%. For the compound `CC(Cc1ccc2c(c1)OCO2)NO` (configuration not stated), the “activation” value was inactive: -3.73% [at 129 µM]. The result for `Cc1ccccc1-n1c(/C=C/c2ccc(O)cc2)nc2ccccc2c1=O` reads inactive: -11.6%. In the case of `CC(C)(C)c1ccc(OCC(=O)Nc2ccc(Cl)cc2C(=O)c2ccccc2)cc1`, the “activation” value is inactive: 1.13%. Turning to `CSc1ncc(C(=O)Nc2ccc(Cl)cc2C(=O)c2ccccc2)c(C)n1`, the “activation” value is inactive: 2.88%.
